Whole data set: some 110,000 compounds, median “z-score” near -0.1, cut for the highest 2% near 2. This is one part of the list. Active and inactive are the calls of the source.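 The calls were made as follows: active = z-score in the third read window above 3 or below -3; inactive = the rest.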

The assay concerns the target Metabotropic glutamate receptor 8 (Rattus norvegicus) (UniProt P70579). As to the kind of experiment: mGluR8 Gi/Go-coupled signaling modulation – cell-based, rat, thallium flux, HTS, primary screen (AID 488969). The note with it: HEK293 rat mGluR8, GIRK (G protein-gated inwardly rectifying potassium channel) thallium flux, FluoZin2; at 10 µM; stronger effect = higher value; submaximal glutamate (EC20) added with thallium.
Sequence of UniProt P70579 (P70579 whole entry, looked up): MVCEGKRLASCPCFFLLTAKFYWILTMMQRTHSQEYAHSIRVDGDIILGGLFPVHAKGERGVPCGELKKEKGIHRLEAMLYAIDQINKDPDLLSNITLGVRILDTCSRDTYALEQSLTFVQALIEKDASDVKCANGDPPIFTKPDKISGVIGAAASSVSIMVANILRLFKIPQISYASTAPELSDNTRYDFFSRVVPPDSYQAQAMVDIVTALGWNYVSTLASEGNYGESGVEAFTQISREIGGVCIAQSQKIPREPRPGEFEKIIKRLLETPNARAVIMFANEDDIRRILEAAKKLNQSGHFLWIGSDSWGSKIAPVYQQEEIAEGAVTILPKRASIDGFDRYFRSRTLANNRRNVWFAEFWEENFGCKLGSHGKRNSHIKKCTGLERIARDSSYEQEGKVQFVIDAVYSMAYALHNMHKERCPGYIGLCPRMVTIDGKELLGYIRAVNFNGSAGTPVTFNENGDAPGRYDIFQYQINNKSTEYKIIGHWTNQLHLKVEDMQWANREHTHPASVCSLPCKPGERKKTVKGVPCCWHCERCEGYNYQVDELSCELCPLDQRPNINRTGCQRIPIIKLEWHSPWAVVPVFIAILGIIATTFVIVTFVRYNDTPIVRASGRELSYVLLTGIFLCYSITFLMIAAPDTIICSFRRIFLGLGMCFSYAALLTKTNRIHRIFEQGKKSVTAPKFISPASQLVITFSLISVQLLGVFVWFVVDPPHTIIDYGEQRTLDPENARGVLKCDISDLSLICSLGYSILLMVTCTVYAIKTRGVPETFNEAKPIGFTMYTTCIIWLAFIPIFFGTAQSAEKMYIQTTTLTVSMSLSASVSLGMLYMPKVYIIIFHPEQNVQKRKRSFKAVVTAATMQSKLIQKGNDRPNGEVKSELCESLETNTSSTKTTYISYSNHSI
In turn, `Cc1cc(C)c(C(N)=O)c(Nc2cccc(Cl)c2C)n1` yielded a z-score of 0.449. With `O=C(COc1ccc2ccccc2c1)Nc1ccc(Cc2ccncc2)cc1` the figure was 0.0647; with `Cc1ccc(S(=O)(=O)CC#CCOC(=O)c2ccc([N+](=O)[O-])cc2)cc1`, -0.871. The same measure for `S=C1NC2=C(CCCC2)C2(CCCCC2)N1`: -0.127; for `CCN(CC)C(=O)c1ccc(S(=O)(=O)N2CCC(c3nc4ccccc4s3)CC2)cc1`: 0.306. `CCCCN(C(=O)CSc1nnc(-c2ccc(OC)cc2)n1C(C)C)c1c(N)n(Cc2ccccc2)c(=O)[nH]c1=O` had a z-score of -0.219. Consider `O=C(NCc1nc(-c2ccccc2)no1)c1ccc2c(c1)OCO2`, for which the z-score is -0.283. With `O=C(COC(=O)CCSc1ccccc1)NCc1ccccc1Cl` the figure was -0.354; with `CC(C)CNc1cc(=O)n(C)c(=O)n1C`, 0.383; with `O=C(Nc1ccccc1)c1ccc(Cn2cc(C(F)(F)F)ccc2=O)cc1`, -0.0968. Regarding `Cc1ccc(/C=C/c2nnc(-c3cccs3)o2)cc1`, the z-score stood at 0.191. For `CC(C(=O)N1CCN(c2ccc(Cl)cc2)CC1)c1ncc(C(F)(F)F)cc1Cl` (stereo not drawn), the z-score is -0.197. With `COc1ccc(C(=O)n2c(SC)nc3cc4c(cc32)OCCO4)cc1` the figure was -0.848; with `Cc1ccccc1Cn1c(=O)n(CCCC(=O)NCc2ccco2)c(=O)c2sccc21`, -0.264.

`O=C(Nc1ccccc1C(=O)N1CCOCC1)C1COc2ccccc2O1` (stereo not drawn): the z-score is 0.436. `C/C(=N\NC(=O)c1ccccc1[N+](=O)[O-])c1c(O)cc(C)oc1=O` returned a z-score of -0.137. With `CC(=O)c1c(C)[nH]c(C(=O)CSc2nnc3ccccn23)c1C` the figure was -0.0581. In turn, `CCCCCC(=O)Nc1ccc(N2CCN(S(C)(=O)=O)CC2)cc1` gave a z-score of 0.139. Turning to `COC(=O)c1sccc1NC(=O)c1cc(-c2cccc(C)c2)nc2ccccc12`, the z-score was -0.317. In turn, `NC(=O)c1ccsc1NC(=O)CN1C(=O)C2CC=CCC2C1=O` (stereo not drawn) yielded a z-score of 0.552. `Cc1nc2ccc(NC(=O)c3ccc(S(=O)(=O)N(C)c4ccccc4)cc3)cc2s1` gave a z-score of -0.562. The molecule `Cc1cc(C)c(NC(=O)CSc2nc3ccc(NC(=O)CSc4nnnn4Cc4ccccc4)cc3s2)c(C)c1` showed a z-score of -0.271. The same measure for `COC(=O)c1c(N2C(=O)[C@H]3[C@@H](C2=O)[C@]2(C(=O)Nc4c2ccc(C)c4C)N2CCC[C@@H]32)sc(C)c1C`: 0.072.

Take `CCOC(=O)c1c(NC(=O)CSc2nnnn2-c2ccccc2)sc2c1CCC(C)C2` (stereo not drawn): the z-score is -0.662.

Take `CC(C)OCCCNC(=O)C(=O)NCCCOC(C)C`: the z-score is -0.0513. The same measure for `Cc1cccc(C)c1NC(=O)/C(C#N)=C/c1cccs1`: -0.0784. The same measure for `Cc1nn(Cc2ccc(Cl)c(Cl)c2)c(C)c1NC(=O)c1sc2ccccc2c1Cl`: -0.213; for `COc1ccc(NC(=O)COC(=O)c2cc(OC)c(OC)cc2NC(=O)c2ccco2)cc1OC`: -0.379. In turn, `CCc1ccc(NC(=O)CC2C(=O)Nc3c2c(=O)n(C)c(=O)n3C)cc1` (stereo not drawn) had a z-score of -0.691. Take `O=C1CCCC2=C1C(c1ccncc1)c1c(nc(SCc3ccccc3)[nH]c1=O)N2` (stereo not drawn): the z-score was -1.55.

`Cc1ccc(S(=O)(=O)c2ccc(Cl)cc2)cc1S(=O)(=O)N1CCN(C)CC1` displayed a z-score of 0.436. With `C1CCCC(N2CCNCC2)CC1`, the z-score stood at 0.33. For the molecule `O=C(Cc1ccccc1[N+](=O)[O-])Nc1ccc2c(c1)OCCO2`, the z-score is -0.115. Consider `CCCCNC(=S)N/N=C1\C(=O)c2cccc3cccc1c23`, for which the z-score was active: 3.16. The same measure for `CCOC(=O)COc1ccc2ccccc2c1/C=C/[N+](=O)[O-]`: 0.0128; for `O=C(CSc1nc(O)cc(=O)n1-c1ccccc1)NCc1ccccc1`: 0.505. The same measure for `CCNC(=O)CN(c1ccc(OC)c(OC)c1)S(=O)(=O)c1ccccc1`: -0.11; for `COc1ccc(CCN(C)CCC(=O)Nc2cc(C)ccc2C)cc1OC`: -0.105; for `Nn1c(SCc2csc(-c3ccccc3)n2)nnc1-c1cccs1`: -0.675. Molecule `COc1ccc(-c2cc(C(F)(F)F)nc(N3CCN(c4ccc(F)cc4)CC3)n2)cc1OC` returned a z-score of -0.618. The same measure for `CCOc1cc(C)c(S(=O)(=O)Nc2ccc(Cl)cn2)cc1C`: -0.241; for `CCC(=O)n1nc(-c2ccccc2)nc1N`: -0.874; for `COc1cc2c(cc1OC)CN(C(=O)c1ccc(S(=O)(=O)N3CCCCCC3)cc1)CC2`: -0.698.

On to `CCOC(=O)Cc1nnc2c(Nc3ccc(C)cc3)nc3nonc3n12`, for which the z-score is -0.777.

Take `CCCc1cc(C(N)=O)c(NC(=O)c2ccco2)s1`: the z-score is -0.478. For `Clc1cccc(Oc2cnc3ccccc3n2)c1`, the z-score is -0.105. The molecule `COc1ccc(OC)c(Nc2nc3nonc3nc2N2CCCCC2)c1` displayed a z-score of -0.227. With `COc1cccc(/C=N/NC(=O)CCc2n[nH]c(=O)[nH]c2=O)c1O` the figure was -0.00761; with `Cc1ccc(N2C(N)=C(C#N)C(c3cccnc3)C3=C2CC(C)(C)CC3=O)cc1` (stereo not drawn), -0.318. Molecule `Cc1cc(N2CCCC2)nc(-c2ccccc2O)n1` returned a z-score of 0.00629.

`O=C(O)c1cc(/C=N\O)ccc1OCc1ccccc1`: the z-score is 0.164. With `COC(=O)c1ccc(N2C(=O)CC(N3CCC(O)(c4ccc(Br)cc4)CC3)C2=O)cc1` (stereo not drawn) the figure was 0.0452; with `COc1ccc(CCNC(=O)c2nnn(-c3cccc(C)c3)c2N)cc1OC`, -1.32.

As to `O=C(Nc1cccc(Cl)c1)N(CCN1CCOCC1)Cc1ccccc1F`, the z-score is -0.654. With `COc1ccc(/C=N/Nc2nonc2N)cc1OC`, the z-score was -0.52.

As to `CCN(CC)S(=O)(=O)c1ccc2c(c1)nc(CCC(=O)OCC(=O)Nc1cc(OC)cc(OC)c1)n2C`, the z-score is -0.316. Consider `CC(C)c1cc(C(=O)O)n(-c2ccccc2)n1`, for which the z-score is -0.019. The same measure for `COc1ccc([N+](=O)[O-])cc1NC(=O)C1CCCO1` (stereo not drawn): -0.326; for `CC1=CC(C)(C)Nc2ccc(OC(=O)CN3C(=O)C4CCCCC4C3=O)cc21` (stereo not drawn): 1.08; for `COc1ccccc1C(=O)OCc1nc(N)nc(Nc2ccccc2C)n1`: -0.14. With `O=C1CC(N2CCN(c3ccc(F)cc3)CC2)C(=O)N1Cc1ccc(N2CCCC2=O)cc1` (stereo not drawn), the z-score was determined as 0.135. With `COc1ccc(/C=N/NC(=S)Nc2ccccc2[N+](=O)[O-])cc1O` the figure was 1.71.

Turning to `O=C1CC(c2ccc(Cl)cc2)CC(O)=C1C=NCCN1CCNCC1` (stereo not drawn), the z-score was 1.62.

Molecule `CCN(c1ccccc1)S(=O)(=O)c1ccc(C(=O)Nc2nccs2)cc1` gave a z-score of 0.0747.

`CCCCOc1ccc(NC(=O)CSc2cccc3cccnc23)cc1` showed a z-score of 0.468. With `CCN(CCCNC(=O)CN(C)S(=O)(=O)c1cccc2nsnc12)c1cccc(C)c1` the figure was -0.213. In the case of `Cc1cc(C)n(-c2ccc(Cl)c(C(=O)O)n2)n1`, the z-score turned out to be 0.445. The same measure for `O=C(NC1CCCC1)C1CCN(S(=O)(=O)N2CCCCC2)CC1`: -0.018. The same measure for `Oc1oc(-c2ccccc2)nc1C=Nc1ccccc1`: -0.937.

The molecule `Cc1cccc(-c2nc(CS(=O)CC(=O)N3CCCCC3)c(C)o2)c1` (stereo not drawn) registered a z-score of -0.419.

In the case of `CCn1ncc(CNC(=O)CCSc2nc(-c3ccco3)cc(C(F)(F)F)n2)c1C`, the z-score is -0.127. The same measure for `CC(C)CCNC(=O)NC(=O)CN1C(=O)NC2(CCCCC2)C1=O`: 0.0574. Regarding `CCc1nnc2c3cnn(-c4ccccc4)c3ncn12`, the z-score worked out at 0.421. The same measure for `O=C(CSc1nc2cc(Cl)ccc2s1)c1cc2ccccc2o1`: 1.64; for `CC1(C)CC(=O)c2cnc(NC(=O)CCc3ccccc3)nc2C1`: -0.267; for `CCOCCCNC(=O)C(c1ccc(Cl)cc1)N1CCN(C(=O)c2ccco2)CC1` (stereo not drawn): -0.399. The same measure for `O=C(COc1cccc(Oc2ccccc2)c1)Nc1ncccn1`: -1.72. Take `COc1ccc(NC(=O)CCS(=O)(=O)c2ccc3c(c2)CCCN3C(C)=O)cc1`: the z-score was found to be 0.847.

Take `Cc1occc1-c1n[nH]c(=S)n1-c1ccccc1`: the z-score stood at 0.0165. `Cc1ccc(C)c(NC(=O)CSc2nnc([C@@H]3CCCN3C(=O)OC(C)(C)C)o2)c1` displayed a z-score of 0.531. Consider `COc1ccc(CNc2oc(COc3ccccc3Cl)nc2C#N)cc1`, for which the z-score is -0.457. Take `COc1ccc(-c2nnc(NC(=O)c3ccc(S(=O)(=O)N4CCc5ccccc5C4)cc3)o2)cc1`: the z-score was active: 9.68. As to `Cc1ccccc1NC(=O)CN1C(=O)COc2ccc(Cl)cc21`, the z-score was -0.461.

Molecule `CCN(CC)S(=O)(=O)c1cccc(-c2nnc(SCC(=O)c3cc(C)n(C)c3C)o2)c1` displayed a z-score of -0.404. With `COc1ccccc1NC(=O)Cn1c(CN2CCCCC2)nc2ccccc2c1=O` the figure was -0.0646; with `CCOc1ccc(NS(=O)(=O)c2ccc(OCC)c3ncccc23)cc1`, -0.466; with `CCCCN1C(=S)SC(C)(C)C1/[N+]([O-])=C/c1cccnc1` (stereo not drawn), -0.00445.

Consider `Cc1ccc(OCCn2c(=O)sc3ccccc32)cc1`, for which the z-score is -0.193. `CC(C)[C@H](NC(N)=O)C(=O)Nc1ccc2c(c1)CCC2` came in with a z-score of 0.278.

With `Cc1cc(C(=O)COc2cccc3cccnc23)c(C)n1C`, the z-score is 1.45. With `COc1cccc(C(=O)NCc2cn3ccsc3n2)c1` the figure was active: 15.2. With `CCn1c(/N=C/c2c[nH]c3ccccc23)nc2ccccc21`, the z-score was determined as 0.382. Regarding `Cc1cccc(NC(=S)N/N=C/c2c[nH]c3ccccc23)c1`, the z-score is -0.0914. The same measure for `C=CCSc1nc2c(sc3nc(C)cc(C)c32)c(=O)[nH]1`: -1.32; for `COC(=O)C1=C(C)NC(=O)CC1c1cc(Br)ccc1F` (stereo not drawn): -0.0702. With `O=C(Nc1cccnc1)c1c(F)c(F)c(F)c(F)c1F` the figure was 0.614; with `O=C(NCCc1ccccc1)C(c1cccs1)N(C(=O)CCl)c1ccc(Cl)cc1` (stereo not drawn), -0.168.

`O=C(Nc1ccc(N2CCCCC2)c(C(=O)O)c1)c1ccco1`: the z-score was -0.186. `O=C(Cc1cccs1)Nc1nc2c(ccc3ccccc32)s1` gave a z-score of 0.34. Regarding `Cc1ccc(C(=O)NC(=S)N2CCN(c3ccc([N+](=O)[O-])cc3)CC2)cc1`, the z-score stood at 0.426. With `C/C(O)=C(\C#N)c1nc2ccccc2[nH]1` the figure was -0.0354; with `O=C(CNCCC1=CCCCC1)Nc1ccc(N2CCCCCC2)cc1`, -0.0273; with `Cc1cccc(C)c1OCC(O)CNS(=O)(=O)c1ccccc1C(=O)N1CCCCC1` (stereo not drawn), 1.51.

In turn, `CON/C=C(\C=Nc1ccc(Cl)cc1)c1ncc(C(F)(F)F)cc1Cl` showed a z-score of 0.285. The same measure for `CCc1nnc(NC(=O)c2ccc(S(=O)(=O)NCC(C)C)cc2)s1`: -0.367; for `O=C(CN1C(=O)NC2(CCCCCCC2)C1=O)NCc1cccs1`: -0.142; for `CCCNC(=O)CS(=O)Cc1nc(-c2ccc(OC)cc2)oc1C` (stereo not drawn): 0.1. Molecule `COc1ccccc1CN(Cc1nc2ccccc2c(=O)[nH]1)S(=O)(=O)c1ccc2ccccc2c1` gave a z-score of 0.217.

The record behind these values is PubChem BioAssay AID488969 (Vanderbilt High Throughput Screening Facility, 2010).
